The values that follow come from PMC2854127, “Structural Basis for Fe–S Cluster Assembly and tRNA Thiolation Mediated by IscS Protein–Protein Interactions” (PLoS Biology, 2010).

Sequences of proteins named here, by UniProt entry; tags and fusion partners are left off.
UniProt P0A890: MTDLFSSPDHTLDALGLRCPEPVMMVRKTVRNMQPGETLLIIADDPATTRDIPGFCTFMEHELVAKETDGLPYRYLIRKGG

Assay [1] concerns the target T1, GST-ThiI (UniProt P77718).
T1 sequence: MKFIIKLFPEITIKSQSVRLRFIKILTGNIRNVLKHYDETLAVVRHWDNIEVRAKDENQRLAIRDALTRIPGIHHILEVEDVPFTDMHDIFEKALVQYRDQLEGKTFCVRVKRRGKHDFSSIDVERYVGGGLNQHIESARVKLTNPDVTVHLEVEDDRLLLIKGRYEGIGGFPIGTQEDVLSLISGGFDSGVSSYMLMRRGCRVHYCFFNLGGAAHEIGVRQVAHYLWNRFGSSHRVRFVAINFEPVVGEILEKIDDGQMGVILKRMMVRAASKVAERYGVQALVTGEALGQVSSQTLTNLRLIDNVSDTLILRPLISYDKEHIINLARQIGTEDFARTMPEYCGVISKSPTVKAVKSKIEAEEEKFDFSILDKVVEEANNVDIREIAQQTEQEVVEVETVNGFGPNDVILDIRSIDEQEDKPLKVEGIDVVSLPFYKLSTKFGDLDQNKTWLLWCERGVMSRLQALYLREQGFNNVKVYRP
Put plainly: pull-down.

In assay [2] the target is GST-IscU E5L (E. coli O157:H7 EDL933) (UniProt P0ACD6). Put plainly: pull-down.
Assay [3] deals with T2, GST-CyaY (UniProt P27838).
T2 sequence: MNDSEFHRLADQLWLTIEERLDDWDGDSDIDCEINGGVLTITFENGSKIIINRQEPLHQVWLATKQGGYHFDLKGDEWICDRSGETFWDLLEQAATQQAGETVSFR
Put plainly: pull-down.

For assay [4], the target named is GST-TusA (wild type) (UniProt P0A890). Put plainly: pull-down.
The target of assay [5] is T3, GST-IscX (UniProt P0C0L9).
T3 sequence: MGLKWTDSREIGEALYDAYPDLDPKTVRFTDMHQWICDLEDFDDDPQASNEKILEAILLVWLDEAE
The assay can be described thus: pull-down.

The target in assay [6] is GST-IscU K103E (E. coli O157:H7 EDL933) (UniProt P0ACD6). The assay can be described thus: pull-down.
Assay [7] deals with GST-IscU Y11A (E. coli O157:H7 EDL933) (UniProt P0ACD6). The assay can be described thus: pull-down.
Assay [8] has as its target GST-IscU D9R (E. coli O157:H7 EDL933) (UniProt P0ACD6). Put plainly: pull-down.
Assay [9] has as its target GST-IscU E98R (E. coli O157:H7 EDL933) (UniProt P0ACD6). Put plainly: pull-down.
Assay [10] concerns the target GST-IscU (wild type) (UniProt P0ACD6). Put plainly: pull-down.
The target in assay [11] is T2, GST-CyaY. Put plainly: pull-down; both purified.
Assay [12] addresses GST-TusA (wild type) (UniProt P0A890). The assay can be described thus: pull-down; both purified.
In assay [13] the target is T3, GST-IscX. Put plainly: pull-down; both purified.

These are yes or no findings as the source states them, for the method shown. For part of these data: Binding seen in cells or lysates may run through a third protein. Some binding calls cover weakened binding; strength is not graded here. For part of these data: Where a sequence is shown, tags or fusion partners need not be part of it.

On to “His6-IscS (wild type) (from UniProt P0A6B9) (enzyme)”, for which the binding entry is given as “binds” in assay [1]; “binds” in assay [2]; “binds” in [3]; “binds” in assay [4]; “binds” in assay [5]; “no binding” in [6]. Besides, the binding entry in [7], in [8] and in [9] was “binds” each time.
Turning to “His6-IscS A327V (from UniProt P0A6B9) (enzyme)”, the binding entry in assay [5] is recorded as “no binding”.
For “His6-IscS C328S (from UniProt P0A6B9) (enzyme)”, the binding entry in assay [1] and in [10] was “binds” in each case.
For the substance “His6-IscS D52A (from UniProt P0A6B9) (enzyme)”, the binding result in [10] is given as “binds”.
Still for that read-out and setting: under “His6-IscS D52M (from UniProt P0A6B9) (enzyme)” stands “binds”.
Regarding “His6-IscS D52R (from UniProt P0A6B9) (enzyme)”, the binding entry in [10], in assay [3] and in [5] was “binds” in each case.
Regarding “His6-IscS D52Y (from UniProt P0A6B9) (enzyme)”, the binding result in assay [10] is on record as “binds”.
“His6-IscS D65F (from UniProt P0A6B9) (enzyme)”: the binding result in assay [1], in assay [10], in assay [3] and in assay [5] was “binds” in each case.
With “His6-IscS D346R (from UniProt P0A6B9) (enzyme)”, the binding result in assay [1], in [10] and in assay [5] was “binds” each time.
As for “His6-IscS E49A (from UniProt P0A6B9) (enzyme)”, in assay [10], the binding result is “binds”.
Regarding “His6-IscS E311R (from UniProt P0A6B9) (enzyme)”, the binding result in assay [10] and in [5] was “binds” each time.
Consider “His6-IscS F89E (from UniProt P0A6B9) (enzyme)”, for which the binding result in assay [10] is listed as “binds”.
On to “His6-IscS G234L (from UniProt P0A6B9) (enzyme)”, for which the binding result in assay [1] and in assay [10] was “binds” throughout.
In the case of “His6-IscS L386R (from UniProt P0A6B9) (enzyme)”, the binding result in assay [1], in assay [10] and in [5] was “binds” in each case.
On to “His6-IscS M389R (from UniProt P0A6B9) (enzyme)”, for which the binding entry in assay [10] is on record as “binds”.
Take “His6-IscS R39E (from UniProt P0A6B9) (enzyme)”: the binding result in assay [1], in assay [10] and in assay [5] was “binds” in each case.
Consider “His6-IscS R112E (from UniProt P0A6B9) (enzyme)”, for which the binding entry in [1] and in [10] was “binds” each time.
For “His6-IscS R116E (from UniProt P0A6B9) (enzyme)”, the binding entry in assay [10] is on record as “binds”.
As for “His6-IscS R220E (from UniProt P0A6B9) (enzyme)”, the binding result in assay [1] was “no binding”; in assay [10], “binds”; in [3], “no binding”; in assay [5], “no binding”.
Take “His6-IscS R223E (from UniProt P0A6B9) (enzyme)”: the binding result in [3] and in [5] was “no binding” each time.
As for “His6-IscS R223E/R225E (from UniProt P0A6B9) (enzyme)”, the binding result in [10] is reported as “binds”; in assay [5], “no binding”.
On to “His6-IscS R225E/E227R (from UniProt P0A6B9) (enzyme)”, for which the binding result is “binds” in assay [1], “binds” in [10], “no binding” in [3] and “no binding” in assay [5].
“His6-IscS R237E/M239E (from UniProt P0A6B9) (enzyme)”: the binding entry in [1] is “no binding”; in [10], “binds”; in assay [3] it was “no binding”; in [5], “no binding”.
Regarding “His6-IscS R340E (from UniProt P0A6B9) (enzyme)”, the binding entry is reported as “no binding” in assay [1], “binds” in assay [10] and “no binding” in [3].
As for “His6-IscS W45R (from UniProt P0A6B9) (enzyme)”, the binding result in assay [10], in [3] and in assay [5] was “binds” throughout.
With “His6-IscS-IscU complex (formed beforehand) (from UniProt P0A6B9;P0ACD6)”, the binding result was “binds” in [11], “no binding” in assay [12] and “binds” in assay [13].
